Experimental findings from PubChem BioAssay (NCI) are described below.

The subject of this assay is OVCAR-4 ovarian. The assay is described as follows: NCI-60 one-dose screen, 48 h (100 = growth as untreated, 0 = no growth, -100 = all killed).

More than one record can exist for a structure, and the calls need not agree.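 Note: values are percent growth. 100 is the growth of untreated cells, values between 100 and 0 indicate rising inhibition; between -100 and 0 indicates cell death.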 A number of entries come with more than one value. Only these are listed. How the source made its calls: active means growth percent below 10; inactive means the rest. An entry can have further records. These are repeated runs of one drug, at its own concentration, as given; one value stands for one run. Additions like (4×) stand for listed records that agree.

`COc1cccc2c1C(=O)c1c(O)c3c(c(O)c1C2=O)C[C@@](O)(C(=O)CO)C[C@@H]3OC1CC(N)C(O)C(C)O1` (some centres not stated): the growth result runs as follows: (0.25 µM, runs of 2021) “inactive: 70.4, 74.2, 76.1, 78, 73.2, 70.6, 73.8, 76, 66.7, 65.3, 70.7, 83.9, 75, 91.4, 87.9, 87.7, 84.9, 97.5, 81.2, 81.6, 94.8, 90.4 (3×), 92.8, 94.7, 92.9, 97.2, 92.7, 91.9, 86.2, 83.8, 87, 83.1, 87.2, 86.1, 97.9, 93.1, 91.6, 91.1, 88.2, 76.6, 65.1, 77.6, 91.5, 72.7, 75.3, 87.3, 90.5, 84.7%”; (0.25 µM, runs of 2022) “inactive: 67.4, 66.8, 86.8, 91.8, 43.2, 86.7, 66.7, 81, 87.6, 78.4, 74.2, 84.8, 69.2, 75.6, 72.1 (2×), 77.3, 98.9 (2×), 98.7, 93.5, 105, 111, 92.4 (2×), 92.8, 93.1, 83.8%”; (25 µM, runs of 1991) “active: -35.9, -31.5, -22.5, -29.4, -57.6, -21, -51.2, -57.8, -22.9, -33.1, -20.7, -37.1, -16.4, -39.1, -34, -5.68, -9.36%”; (25 µM, runs of 1992) “active: -19.6, -33.4, -14, -48.9 (2×), -15.3, -13.1, -15.6, -19.9, -33.1, -27.3, -56.6, -56.3, -60.1, -37.1, -24.5, 1.63, -17.8, 7.75, -10.2, 0.92, -36.8 (2×), -27.8, -12.6, -8.94, 2.02, -61.6, -26.9, -13.9, -33.5, -36 (3×), -33.8 (2×), -47.4 (2×), -8.15, -28.8, -34, -21.3, -19.8, -36.9, -27.7, -29.8 (2×), -23.9, -44.6, -50, -54.6, -52.8, -8.76, -43.6, -47.9, -41.1, -9.49, -33.6 (2×), -34.9, -43.5, -39.2, -57.3, -43, -61.7, -52.7, -71.9, -66, -67.5, -57.7, -59.3, -49.1, -41.7, -59.7, -15.8, -30.4, -49.7, -20.6, -43.4, -44.7, -55, -53.1, -42.2, -28.3, 3.28, -26.5 (2×), -40.9, -57.5, -57.2, -65.5, -39.9, -7.13, -56.2, -65.3, -35.9, -9.48, -55.5, -56.8, -58.4, -55.6, -42.7, -67.8, -71.8, -55.3, -4.55, -41.2, -36.7, -54.1, -52.3, -62.5%”; (25 µM, runs of 1993) “active: -47.4, 9.75, -50, -45 (2×), -68.2, -41.3, -31.4, -34.9, -30.2, -41.9, -16.2, -17.2, -34.6, -28.4, -2.44, -18, -55.2, -32.8, -49.5, -59.2, -55.3, -17.7, -1.54, -25.1, -67, -23.7, -23.4, -22.8, -43.8, -22.6, -26.6, -21.5, -25.4, -40.3, -57.6, -40.6, -51.7, -56.3, -44.3, -18.8, -53.5, 4.14, -23.8, -46.6, -34.8% and inactive: 18%, 17.1%”; (25 µM, runs of 1994) “active: -57.2, -54.7, -49.6 (2×), -36.8, -71.9, -29.2, -39.3, -46.5, -12.2, -29.8, -34.8, -17.7, -42.3, 0.693, -47.4, -61.7, -25.4, -41.3, -46, -69.4, 4.46, -30.1, -73.4, -50.8, -15.9, -55.7, 0.0639, -88.6, -40.3% and inactive: 111%, 37%”. The growth result by setting is: (25 µM, runs of 1995) “active: -41.2 (2×), -71.6, -46.7, -24.4, -42.5, -39.7, -52, -9.87, -33.1, -39, -45.5, -50.9, -57.5, -47.8, -27.4, -49.8, -43, -28.7, -42.8, -72.4, -39.4, -23.4, -37.3, -54.3, 7.56, -26.5, -31.5, 4.64, -28.1, -42.3, -43.8 (2×), -41.8, -26.2, -30.6, -47, -49% and inactive: 11.4%”; (25 µM, runs of 1996) “active: -46.6, -7.3, -45.3, -11, -28.6, -44.6, -28.4, -30.3, -54.9, -28.1, -13.5, -29.8, -31.6, -10.6, -54.3, -52.5, -42.3, -14.9, -44.2, 1.12, -38.3, -49.3, 2.2, -20.2, -36.9, -48.7, -28, -52.3, -4.01, -24.3, -57.9, -34.3, -36.8, -41.7, -44.4, -63.9, -41.4, -12.5, -56, -47.5, -21.2, -56.4, -61.2, -58.2, -27.2, -39.3, -36.1, -27.3, -26.9, -26.5, -14.3, -14.8, -56.2% and inactive: 90.8%, 39.8%”; (25 µM, runs of 1997) “active: -22.8, -56.6, -4.42, -30.6, -55.7, -58.7, -33.8, -62.6, -35.8, -24.2, -32.6, -49.9, -58.4, -53.1, -38, -35.4, -43, -40, -54.7, -44.4, -56.9, -42.6, -34.4, -35.9, -15.4, -22.9, -4.2, -16.5, -39.7, -18.7, -27.4, -38.3, -46.4, -34.7, -17.2, -7.19, -9.86, -41.9, -17.8, -26.6%”; (25 µM, runs of 1998) “active: -4.61, -53.5, -4.55, -33.9, -2.72, -29.7, -35.9, -67.4, -45.6, -48.7, -47.3, -54.8, -58.5, -56.9, -5.7, -49.5, -42.5, -38.1, -33.4, -35.1, -43.9, -35% and inactive: 24.5%, 23.8%”; (25 µM, runs of 1999) “active: -29.2, -47.6, -61.7, -55.8, -50 (2×), -4, -38.1, -75.3, -71.4, 1.29, 2.23, -100, 0.74, -63.5% and inactive: 17.4%”; (25 µM, runs of 2000) “active: -61.5, -100, 0.439, -78.1%”.
